# Reference: a collection of fitness landscapes (doi:10.1126/science.1257360)
# The list shows a part of the results.
# B1: PhoQ; a variant is named by its letters at X, in order, P23837 (parent)
# chain: MKKLLRLFFPLSLRVRFLLATAAVVLVLSLAYGMVALIGYSVSFDKTTFRLLRGESNLFYTLAKWENNKLHVELPENIDKQSPTMTLIYDENGQLLWAQRDVPWLMKMIQPDWLKSNGFHEIEADVNDTSLLLSGDHSIQQQLQEVREDDDDAEMTHSVAVNVYPATSRMPKLTIVVVDTIPVELKSSYMVWSWFIYVLSANLLLVIPLLWVAAWWSLRPIEALAKEVRELEEHNRELLNPATTRELTSLVRNLNRLLKSERERYDKYRTTLTDLTHSLKTPLXXLQXXLRSLRSEKMSVSDAEPVMLEQISRISQQIGYYLHRASMRGGTLLSRELHPVAPLLDNLTSALNKVYQRKGVNISLDISPEISFVGEQNDFVEVMGNVLDNACKYCLEFVEISARQTDEHLYIVVEDDGPGIPLSKREVIFDRGQRVDTLRPGQGVGLAVAREITEQYEGKIVAGESMLGGARMEVIFGRQHSAPKDE
# Variants of: B1
# Experiment: enrichment ratio after two sorts for PhoP signalling (ratio (wild type AVST 3.29)); higher = more functional
# Conditions: with PhoP (E. coli)
row,Variant,enrichment ratio
1,YLIT,≤ 0.25
2,SMLT,0.638
3,MTYH,3.57
4,YNGM,≤ 0.25
5,MYFP,≤ 0.25
6,APRT,≤ 0.25
7,WWVA,≤ 0.25
8,MYPF,≤ 0.25
9,HWAF,≤ 0.25
10,DFLY,≤ 0.25
11,LTYM,≤ 0.25
12,HLVR,≤ 0.25
13,GSYC,≤ 0.25
14,KAPM,≤ 0.25
15,VTYI,≤ 0.25
16,WEEK,≤ 0.25
17,CLNV,≤ 0.25
18,EGVI,≤ 0.25
19,SPWN,≤ 0.25
20,QAFY,1.67
21,GRWL,≤ 0.25
22,LMYS,≤ 0.25
23,NHMR,≤ 0.25
24,MYKS,≤ 0.25
25,FGVR,≤ 0.25

row,Variant,enrichment ratio
1,DTKH,≤ 0.25
2,MFRF,≤ 0.25
3,ECFT,≤ 0.25
4,DQCK,≤ 0.25
5,AMKK,≤ 0.25
6,WCGK,≤ 0.25
7,VTSC,≤ 0.25
8,QNVP,≤ 0.25
9,HVDN,≤ 0.25
10,AQKS,≤ 0.25
11,FLIG,≤ 0.25
12,DIRF,≤ 0.25
13,FPTT,≤ 0.25
14,VFRG,≤ 0.25
15,AIDH,≤ 0.25
16,PILD,≤ 0.25
17,NYDI,≤ 0.25
18,MGVR,≤ 0.25
19,HFVI,≤ 0.25
20,QKHA,≤ 0.25
21,MSGE,6.35
22,NLEW,≤ 0.25
23,NVHW,≤ 0.25
24,FLHW,≤ 0.25
25,HCAN,≤ 0.25

row,Variant,enrichment ratio
1,QTFH,≤ 0.25
2,SVTV,11.3
3,KTGD,≤ 0.25
4,HYKW,≤ 0.25
5,TDDG,≤ 0.25
6,IIRD,≤ 0.25
7,GWFM,≤ 0.25
8,MFEP,≤ 0.25
9,LCWW,≤ 0.25
10,AVWR,≤ 0.25
11,IGTD,≤ 0.25
12,MDCG,≤ 0.25
13,EVYF,≤ 0.25
14,PILQ,≤ 0.25
15,TWDY,≤ 0.25
16,RHWH,≤ 0.25
17,TYDL,≤ 0.25
18,AKRK,≤ 0.25
19,RMSS,≤ 0.25
20,QLNT,≤ 0.25
21,MQAH,7.5
22,MIAR,4.26
23,RPLS,≤ 0.25
24,NIKF,≤ 0.25
25,TCCT,7.4

row,Variant,enrichment ratio
1,RHSD,≤ 0.25
2,CFYY,≤ 0.25
3,KCYR,≤ 0.25
4,SPCR,≤ 0.25
5,QAII,≤ 0.25
6,AQRD,≤ 0.25
7,KASN,≤ 0.25
8,LKYP,≤ 0.25
9,WDPD,≤ 0.25
10,IDWM,≤ 0.25
11,NISG,≤ 0.25
12,VADA,≤ 0.25
13,MNPY,≤ 0.25
14,HVGI,≤ 0.25
15,VHYV,≤ 0.25
16,IKPR,≤ 0.25
17,WDHW,≤ 0.25
18,TGDQ,≤ 0.25
19,STTM,14.3
20,WEAP,≤ 0.25
21,FMEE,≤ 0.25
22,NYLQ,≤ 0.25
23,LWCK,≤ 0.25
24,NGAP,≤ 0.25
25,ITCA,≤ 0.25

row,Variant,enrichment ratio
1,QIRK,≤ 0.25
2,SFLN,≤ 0.25
3,SIHK,≤ 0.25
4,DVMV,≤ 0.25
5,HTVD,≤ 0.25
6,PEMY,≤ 0.25
7,AMCI,14.1
8,HIFV,≤ 0.25
9,MSMA,≤ 0.25
10,SRFV,≤ 0.25
11,FMRC,≤ 0.25
12,SMYP,≤ 0.25
13,WQFP,≤ 0.25
14,AIYG,0.334
15,AMIK,≤ 0.25
16,KHNW,≤ 0.25
17,WLVY,≤ 0.25
18,DNSI,≤ 0.25
19,VRPD,≤ 0.25
20,HEHL,≤ 0.25
21,VDSH,≤ 0.25
22,KLFL,≤ 0.25
23,KMID,≤ 0.25
24,EKYL,≤ 0.25
25,FCLA,1.1

row,Variant,enrichment ratio
1,ASRA,≤ 0.25
2,VQAG,≤ 0.25
3,VYKI,≤ 0.25
4,PWFH,≤ 0.25
5,PHCR,≤ 0.25
6,DLAR,≤ 0.25
7,QEDG,≤ 0.25
8,CFRS,≤ 0.25
9,HMLW,≤ 0.25
10,AGVK,≤ 0.25
11,IQEQ,≤ 0.25
12,INWA,≤ 0.25
13,KDCP,≤ 0.25
14,EQIP,≤ 0.25
15,NHSM,≤ 0.25
16,WELK,≤ 0.25
17,MDNN,≤ 0.25
18,YFMP,≤ 0.25
19,QYMK,≤ 0.25
20,IMIP,≤ 0.25
21,NSEQ,≤ 0.25
22,YWLC,≤ 0.25
23,GSCI,10.8
24,LSQQ,≤ 0.25
25,FNGV,0.37

row,Variant,enrichment ratio
1,YMYE,≤ 0.25
2,QLRV,≤ 0.25
3,TLCH,≤ 0.25
4,NMKF,≤ 0.25
5,YMLY,≤ 0.25
6,LYDQ,≤ 0.25
7,MCYE,≤ 0.25
8,NHNF,≤ 0.25
9,KLYG,≤ 0.25
10,FAYY,≤ 0.25
11,VPWP,≤ 0.25
12,RLLC,≤ 0.25
13,RKVD,≤ 0.25
14,EHSF,≤ 0.25
15,FIQS,≤ 0.25
16,PNKN,≤ 0.25
17,HEKP,≤ 0.25
18,LRVP,≤ 0.25
19,RESS,≤ 0.25
20,LMGW,≤ 0.25
21,FYQS,≤ 0.25
22,GPTP,≤ 0.25
23,DHPG,≤ 0.25
24,FFKI,≤ 0.25
25,KHVF,≤ 0.25

row,Variant,enrichment ratio
1,LYVD,≤ 0.25
2,PIHV,≤ 0.25
3,TESK,6.64
4,VNTT,≤ 0.25
5,PHKY,≤ 0.25
6,SDGE,≤ 0.25
7,QTHN,≤ 0.25
8,GPVG,≤ 0.25
9,VTWT,≤ 0.25
10,SFCW,≤ 0.25
11,IPKC,≤ 0.25
12,TKFY,≤ 0.25
13,KSDR,≤ 0.25
14,GAMK,≤ 0.25
15,LRRA,≤ 0.25
16,NQFC,≤ 0.25
17,ILIT,≤ 0.25
18,VHGI,≤ 0.25
19,GFTA,≤ 0.25
20,DYPG,≤ 0.25
